Source: PubChem BioAssay AID686979 (National Center for Advancing Translational Sciences (NCATS), 2013)
Values joined by “and” are separate entries in the source; they are usually repeats but may differ in a detail not shown here. Equal entries are not always repeated. About 50,000 (12%) of roughly 420,000 compounds were called active. The shares of active, inactive and inconclusive entries below differ from those in the screen. The call rests on the fitted dose curve; in most records, active means well fitted inhibition curve with a large enough effect; inconclusive means small, poorly fitted or top-dose-only effect; inactive means flat fitted curve, though single readings scatter. Potencies of inconclusive entries are doubtful fits and often do not repeat.

Test: qHTS for Inhibitors of human tyrosyl-DNA phosphodiesterase 1 (TDP1): qHTS in cells in presence of CPT; further: nearly all actives have a fitted effect of over 55% in size
Conditions: chicken DT40 Tdp1-/-;hTDP1 cells + 20 nM CPT, ATP luminescence, 48 h; series mostly up to 46.2 µM
Outline: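 Cell growth measured by CellTiter-Glo luminescence after a minimum 48 h, 37 C compound exposure with 20 nM CPT in Tdp1-knockout DT40 cells stably expressing hTDP1, seeded 400/well; qHTS titration format.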
Potency means the concentration at half of the fitted maximal effect; tags describe the fitted curve by direction and shape.

Row | Structure (SMILES) | Potency
1 | O=[N+]([O-])c1cc([As](=O)(O)c2ccc(O)c([N+](=O)[O-])c2)ccc1O | inactive
2 | Cc1cnc(SCc2ccccn2)nc1C1CCCN(C(=O)c2ccc(-c3ccccc3F)cc2)C1 (stereo not drawn) | inconclusive: 23.1 µM [inhibitor, single point]
3 | Cc1ccccc1OCC(=O)Nc1ccccc1C(=O)OCc1cc(=O)n2nc(C3CC3)sc2n1 | active: 1.64 µM
4 | O=c1oc2ccccc2c(O)c1[C@H]1c2ccc(O)cc2Oc2c1c(=O)oc1ccccc21 | inconclusive: 29.1 µM [inhibitor, single point]
5 | COC(=O)C(O)(c1ccc(NC(=S)NC(=O)c2ccc(Cl)cc2Cl)cc1)C(F)(F)F (stereo not drawn) | inconclusive: 9.2 µM [inhibitor, partial curve]
6 | CC1(C)C(O)CC(O)[C@]2(C)C1CC(=O)[C@]1(C)C2CC[C@@]2(C)C(c3ccoc3)OC(=O)C3OC321 (stereo partly drawn) | inconclusive: 25.9 µM [inhibitor, single point]
7 | CC1=NN(c2ccccc2)C(=O)/C1=C/c1c(O)[nH]c(=S)[nH]c1=O | inconclusive: 29.1 µM [inhibitor, single point]
8 | Cc1ccc2[nH]c(C)c(CCNCc3ccco3)c2c1 | inconclusive: 29.1 µM [inhibitor, single point]
9 | O=P(OC1=CCCCC1)(c1ccccc1)c1ccccc1 | inconclusive: 29.1 µM [inhibitor, single point]
10 | O=C(c1c[nH]c(C(=O)C(Cl)(Cl)Cl)c1)c1ccccc1Cl | inconclusive: 23.1 µM [inhibitor, single point]
11 | O=c1c2ccccc2nc(/C=C/c2ccc([N+](=O)[O-])o2)n1-c1ccc(O)cc1 | active: 2.31 µM
12 | COc1cc2c(cc1/C=C/[N+](=O)[O-])OCO2 | active: 5.8 µM
13 | COc1cc(O)c2c(c1)/C=C/C[C@H](O)[C@H](O)C(=O)CCC[C@H](C)OC2=O | inconclusive: 23.1 µM [inhibitor, single point]
14 | CCN(CC(=O)Nc1ccc(C#N)c(Cl)c1)CC(=O)NC(C)(C)C | inconclusive: 29.1 µM [inhibitor, single point]
15 | O=C(c1ccc(-c2ccccc2)cc1)C1CCCN(Cc2ccn[nH]2)C1 (stereo not drawn) | inconclusive: 25.9 µM [inhibitor, single point]
16 | COc1ccc(C(=O)OC2C[C@H]3CC[C@@H](C2)N3O)cc1OC (stereo partly drawn) | inactive
17 | COc1cccc(C(=O)C2CN(C)CC2c2ccc(Cl)cc2)c1 (stereo not drawn) | inconclusive: 32.6 µM [inhibitor, single point]
18 | CCOc1ccc(CN(CCc2ccc3c(c2)OCO3)Cc2ccc(CC)cc2)cc1 | inconclusive: 16.4 µM [inhibitor, single point]
19 | COP(=S)(OC)Oc1ccc(S(=O)(=O)N(C)C)cc1 | inactive
20 | COc1ccc(NC(=O)Nc2cccc3c2O[C@H](CN(C)C(=O)NC2CCCCC2)[C@@H](C)CN([C@H](C)CO)C3=O)cc1 | inconclusive: 29.1 µM [inhibitor, single point]
21 | CCN1CCN(Cc2cc(Br)cc(Br)c2O)CC1 | inconclusive: 29.1 µM [inhibitor, single point]
22 | COc1ccc(C(=O)O/N=C(/C(N)=O)P(=O)(OC(C)C)OC(C)C)cc1 | inconclusive: 29.1 µM [inhibitor, single point]
23 | O=C(COc1ccc2ccccc2c1)N1CCN(Cc2ccncc2)CC1 | inactive

Row | Structure (SMILES) | Potency
24 | c1ccc2oc(-c3ccc4c(c3)CNCc3cnnn3-4)cc2c1 | inconclusive: 29.1 µM [inhibitor, single point]
25 | Cc1oc2cc3oc(=O)c(CCC(=O)N4CCCCC4)c(C)c3cc2c1C | active: 11.6 µM
26 | CNC(C)C#Cc1ccc2oc3cc(C)c(C)cc3c(=O)c2c1 (stereo not drawn) | inconclusive: 18.4 µM [inhibitor, single point]
27 | COC(=O)C1=C(N)OC(C)=C(C(C)=O)C12C(=O)N(C)c1ccccc12 (stereo not drawn) | inconclusive: 18.4 µM [inhibitor, single point]
28 | CCC(c1nnnn1C1CCCC1)N1CCC2(CC1)C(=O)NCN2c1ccccc1 (stereo not drawn) | inconclusive: 29.1 µM [inhibitor, single point]
29 | CCN(CC)C(=O)N[C@H]1C[C@@H]2c3cccc4[nH]cc(c34)C[C@H]2N(C)C1 | inactive and inconclusive: 33.5 µM [inhibitor, single point]
30 | NCCc1ccc(OCc2ccccc2)c(OCc2ccccc2)c1 | active: 16.4 µM
31 | CCOP(=S)(OCC)C(O)CCCCCn1c(=O)c(F)cn(C2CCCO2)c1=O (stereo not drawn) | inactive
32 | COC12CC[C@@]3(C[C@@H]1C(C)(O)C(C)(C)C)[C@H]1Cc4ccc(O)c5c4[C@@]3(CCN1CC1CC1)[C@H]2O5 (stereo partly drawn) | active: 24.1 µM
33 | COc1ccc(-c2cc(=NCCC(=O)O)c3cc(C)ccc3o2)cc1 | inactive
34 | O=C1NC(=O)C2(CCCc3ccc(N(CCCl)CCCl)cc32)N1 (stereo not drawn) | active: 0.411 µM
35 | O=C(Nc1nc2ccccc2s1)c1cccn(Cc2ccccc2)c1=O | inconclusive: 25.9 µM [inhibitor, single point]
36 | COC(=O)C1=C(c2ccc(F)cc2OCc2ccccc2)C[C@@H]2CC[C@H]1N2C(=O)NCc1ccc2[nH]ccc2c1 | inconclusive: 29.1 µM [inhibitor, single point]
37 | COc1ccc(CC2(CCc3ccncc3)C(=O)NC(=O)NC2=O)c(OC)c1 | inactive
38 | [N-]=[N+]=NCc1cn2cccnc2n1 | inactive
39 | CCCc1nc(SC)ncc1C(=O)Nc1ccc(Cl)cc1C(=O)c1ccccc1 | inconclusive: 29.1 µM [inhibitor, single point]
40 | CC[N+]1(C)CCCC(OC(=O)C(O)(c2ccccc2)c2ccccc2)C1 (stereo not drawn) | inconclusive: 3.26 µM [inhibitor, full curve, poor fit]
41 | O=C(Nc1ccc(Br)cc1)c1ccc(Cl)c(S(=O)(=O)N2CCCCCC2)c1 | inconclusive: 29.1 µM [inhibitor, single point]
42 | Cc1ccccc1CN1Cc2cnnn2-c2ccccc2C1C#N (stereo not drawn) | active: 2.59 µM
43 | Cc1ccc(C(=O)N2CCc3cc(CNC(=O)c4ccnn4C)ccc32)cc1 | active: 5.8 µM
44 | CCN(CC)S(=O)(=O)c1ccc2c(c1)c(=O)c(C(=O)NCc1ccccc1OC)cn2C | active: 23.1 µM
45 | COC(=O)C1=C(c2cc3ccccc3s2)C[C@@H]2CC[C@H]1N2C(=O)NCc1ccccc1 | inconclusive: 20.6 µM [inhibitor, single point]
46 | COC(=O)C1=C(c2ccc(F)cc2OCc2ccccc2)C[C@@H]2CC[C@H]1N2C(=O)N1CCC(O)(c2ccc(Cl)cc2)CC1 | inconclusive: 29.1 µM [inhibitor, single point]

Row | Structure (SMILES) | Potency
47 | Cc1ccc(C)c(S(=O)(=O)Nc2ccc3c(c2)CCCN3C(=O)c2cccs2)c1 | active: 16.4 µM
48 | CCC(=NCC1CCCO1)c1c(O)n(-c2ccc(OC)cc2)c(=O)[nH]c1=O (stereo not drawn) | inactive
49 | Cc1ccc(N=Cc2c(O)n(-c3ccc(C)cc3)c(=O)[nH]c2=O)cc1 | inactive
50 | C=CCn1c(O)c(/C(C)=N/N2CCCCCC2)c(=O)[nH]c1=O | inconclusive: 29.1 µM [inhibitor, single point]
51 | CC(N)[C@@H](O)c1ccccc1 (stereo partly drawn) | inactive
52 | CCN1CCN(CC(=O)c2c(C)n(Cc3ccccc3)c3ccc(OC)cc23)CC1 | inconclusive: 23.1 µM [inhibitor, single point]
53 | COc1ccccc1-n1c(-c2ccccc2)nc2ccccc2c1=O | active: 16.4 µM
54 | COc1cc2nc(CN3CC=C(c4ccccc4)CC3)[nH]c(=O)c2cc1OC | inconclusive: 25.9 µM [inhibitor, single point]
55 | COc1ccc(NC(=O)Nc2ccc3c(c2)C(=O)N([C@H](C)CO)C[C@H](C)[C@@H](CN(C)S(=O)(=O)c2ccc(OC)cc2)O3)cc1 | inconclusive: 29.1 µM [inhibitor, single point]
56 | O=C(NCc1ccc(Cl)cc1)C1CCN(C(=O)c2cnn(-c3ccccc3)c2-n2cccc2)CC1 | active: 14.6 µM
57 | Cn1c(=O)cc(SCC(=O)N2CCC3(CC2)OCCO3)c2ccccc21 | inactive
58 | COC(=O)C1=C(c2ccc(F)cc2F)C[C@@H]2CC[C@H]1N2C(=O)NCc1ccc(C(F)(F)F)cc1 | inconclusive: 29.1 µM [inhibitor, single point]
59 | COc1ccc(N=Cc2c(O)n(Cc3ccccc3)c(=S)[nH]c2=O)c(OC)c1 | inactive
60 | COc1cc(C(=S)N2CCOCC2)cc(OC)c1OC(=O)Cc1ccccc1 | inactive
61 | CCCCCCCC(=O)NC(Oc1ccccc1[N+](=O)[O-])C(Cl)(Cl)Cl (stereo not drawn) | inconclusive: 18.4 µM [inhibitor, single point]
62 | CC(=O)N1c2ccc(S(=O)(=O)N3CCCC(C(=O)Nc4cc(C)cc(C)c4)C3)cc2CC1C (stereo not drawn) | inconclusive: 23.1 µM [inhibitor, single point]
63 | Cc1ccc(C)c(CN2CCC(n3nnc4cc(F)ccc43)CC2)c1 | inconclusive: 16.4 µM [inhibitor, single point]
64 | Cc1cccc(NC(=O)N2CCCC2)c1 | inactive
65 | O=C(c1ccc(C(F)(F)F)cc1)C1CCCN(Cc2ccc(CO)o2)C1 (stereo not drawn) | inconclusive: 29.1 µM [inhibitor, single point]
66 | CCOC(=O)c1ccc(N2C(=O)c3[nH]nc(-c4ccccc4)c3C2c2ccc(C(C)C)cc2)cc1 (stereo not drawn) | inconclusive: 16.4 µM [inhibitor, single point]
67 | COc1ccc(-n2c(O)c(/C(C)=N/N3CCCCCC3)c(=O)[nH]c2=O)cc1 | inactive
68 | Cc1ccc(NC(=O)C2CCN(C(=O)c3cnn(-c4ccccc4)c3-n3cccc3)CC2)cc1Cl | inconclusive: 23.1 µM [inhibitor, single point]
